Laboratory results: PubChem BioAssay (NCATS)
Several values for one entry are separate records, joined by “and”; a condition that tells them apart may be missing. Equal entries are not always repeated. The inconclusive results got no clear call from the source; some entries with a clear call stand among them for comparison. Potencies beside an inconclusive call are fits to weak or partial responses and may not hold up. More than one record can exist for a structure, and the calls need not agree. Activity calls are given as the source filed them. Calls follow the shape of the dose curve; as a rule, active = well fitted curve in the direction sought with a large enough effect; inconclusive = small, poorly fitted or top-dose-only effect, or another doubt; inactive = no such curve, though single readings can be large; an effect the other way counts as inactive or inconclusive.

Experiments:
[1] = Viability qHTS for spleen associated tyrosine kinase inhibitor (SYKi) naive MV4-11 cells (AID 1963823); details: MV4-11 AML viability, CellTiter-Glo luminescence, 72 h; viability (% of control): at 45 µM (top of the series); also: nearly all actives have a fitted effect of over 40% in size
Procedure, shortened: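 Viability of MV4-11 AML cells lacking prior SYK inhibitor exposure is scored by CellTiter-Glo luminescence following 72 hr compound incubation at 37 C, 5% CO2, seeded at 500 cells per well.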

[2] = Cellular viability qHTS for adrenocortical cancer (ACC) cell line SW-13 (AID 1963989); details: SW-13 ACC cells viability, CellTiter-Glo, 48 h; activity (max response): stronger effect = lower value; also: nearly all actives have a fitted effect of over 65% in size;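 as to activity (max response): cells grown in serum-free medium with ITS supplement; % is scaled to controls: 0 for no effect and ±100 for the full control effect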
Procedure, shortened: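 SW-13 cells in ITS-supplemented serum-free DMEM were plated overnight, then exposed for 48 h at 37C to compound titrations (up to 46 uM final). Viability was read by CellTiter-Glo luminescence; four-parameter logistic fits gave IC50 and efficacy.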

[3] = Cellular viability qHTS for adrenocortical cancer (ACC) cell line NCI-H295R (AID 1963990); details: CellTiter-Glo ATP luminescence, 48 h; activity change, negative = viability loss: at 46.1 µM (top of the series); also: nearly all actives have a fitted effect of over 60% in size;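 as to activity change, negative = viability loss: 0% = DMSO only wells and -100% = full killing with cytotoxic reference compound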
Procedure, shortened: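 Luminescent ATP read-out (CellTiter-Glo, 20 min RT) after 48 h drug exposure of NCI-H295R cells; a titration up to 46 uM final. Data normalized to doxorubicin (100% inhibition) and DMSO (0%); 4-parameter fit gives IC50, max response.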
Potency is read from the fitted curve at half-maximal effect; tags tell the direction and shape of the fitted curve.

## CN(C)CC/C=C1\c2ccccc2Sc2ccc(Cl)cc21
[1]
  Potency: inconclusive: 23.7 µM [cytotoxic, partial curve]
[2]
  Potency: inconclusive: 23.1 µM [cytotoxic, single point]
[3]
  Potency: inconclusive: 20.6 µM [cytotoxic, single point]

## CC[N+](CC)(CC)CCOC(=O)C(C1CCCC1)C1CCCC1
[1]
  Potency: active: 18.8 µM
[2]
  Potency: inconclusive: 20.6 µM [cytotoxic, single point]
[3]
  Potency: inactive

## Cc1cccc(CC(=O)N2CCc3c2ccc(-c2cn(C)c4ncnc(N)c24)c3F)n1
[1]
  Potency: inconclusive: 1.64 µM [cytotoxic, full curve]
[2]
  Potency: inconclusive: 5.62 µM [cytotoxic, full curve]
[3]
  Potency: inactive

## O=C(/C=C/c1ccc(/C=C/C(=O)Nc2ccc(C3=NCCN3)cc2)cc1)Nc1ccc(C2=NCCN2)cc1
[1]
  viability (% of control): inactive: 73.8% [at 4.97 µM]
[2]
  activity (max response): inactive: -13%
[3]
  activity change, negative = viability loss: inactive: -22% [at 3.81 µM]

## COC(=O)C1=C(C)NC(C)=C(C(=O)OC(C)(C)CN(C)CCC(c2ccccc2)c2ccccc2)C1c1cccc([N+](=O)[O-])c1 (stereo not given)
[1]
  Potency: inconclusive: 13.3 µM [cytotoxic, partial curve]
[2]
  Potency: inconclusive: 18.4 µM [cytotoxic, single point]
[3]
  Potency: active: 20.6 µM

## C[n+]1c2cc(N)ccc2cc2ccc(N)cc21 (tested in a mixture with another compound)
[1]
  Potency: inconclusive: 1.68 µM [cytotoxic, full curve]
[2]
  Potency: active: 2.31 µM
[3]
  Potency: active: 1.3 µM

## Cc1noc(-c2ccc(-c3ccc(C4(C(=O)O)CC4)cc3)cc2)c1NC(=O)O[C@H](C)c1ccccc1
[1]
  Potency: active: 16.6 µM
[2]
  Potency: inconclusive: 28.2 µM [cytotoxic, single point]
[3]
  Potency: inconclusive: 25.1 µM [cytotoxic, partial curve, poor fit]

## C=CC(=O)N1CCC(C2CCNc3c(C(N)=O)c(-c4ccc(Oc5ccccc5)cc4)nn32)CC1 (stereo not given)
[1]
  Potency: active: 7.42 µM
[2]
  Potency: inconclusive: 8.91 µM [cytotoxic, partial curve]
[3]
  Potency: inconclusive: 6.31 µM [cytotoxic, full curve]

## COc1ccccc1O
[1]
  Potency: inactive
[2]
  Potency: inconclusive: 56.2 µM [cytotoxic, single point]
[3]
  Potency: active: 28.2 µM

## CC(C)NC(=O)C1CCC(n2c(NC(=O)c3ccc(F)cc3)nc3ccc(CN4CCC(C(C)(C)O)CC4)cc32)CC1 (stereo not given)
[1]
  Potency: active: 1.02 µM
[2]
  Potency: inconclusive: 10.1 µM [cytotoxic, single point]
[3]
  Potency: active: 10.1 µM

## NC(=O)c1ccccc1O
[1]
  Potency: inconclusive: 7.5 µM [cytotoxic, single point]
[2]
  Potency: inconclusive: 25.9 µM [cytotoxic, single point]
[3]
  Potency: inconclusive: 29.1 µM [cytotoxic, single point]

## CC(NCCC(c1ccccc1)c1ccccc1)c1ccccc1 (stereo not given)
[1]
  Potency: active: 13.3 µM
[2]
  Potency: inconclusive: 23.1 µM [cytotoxic, single point]
[3]
  Potency: inconclusive: 29.1 µM [cytotoxic, single point]

## C[C@@H]1Cc2c([nH]c3ccccc23)[C@@H](c2c(F)cc(/C=C/C(=O)O)cc2F)N1CC(C)(C)F
[1]
  Potency: active: 23.5 µM
[2]
  Potency: inconclusive: 25.1 µM [cytotoxic, single point]
[3]
  Potency: inconclusive: 35.5 µM [cytotoxic, single point]

## C=CC(=O)N1CC(N2CCN(C(=O)CNc3cc(C4(C)CC4)c(Cl)cc3O)CC2)C1
[1]
  Potency: active: 18.6 µM
[2]
  Potency: inconclusive: 31.6 µM [cytotoxic, single point]
[3]
  Potency: active: 15.8 µM

## N#C/C(=C1/SC[C@@H](c2ccc(Cl)cc2Cl)S1)n1ccnc1
[1]
  Potency: active: 11.9 µM
[2]
  Potency: inconclusive: 25.9 µM [cytotoxic, single point]
[3]
  Potency: inactive

## CCN1/C(=C/C=C/c2sc3ccccc3[n+]2CC)Sc2ccccc21
[1]
  Potency: active: 0.0184 µM
[2]
  Potency: inconclusive: 15.9 µM [cytotoxic, partial curve, poor fit]
[3]
  Potency: active: 10 µM

## CNCCCOc1cc(F)c(-c2c(Cl)nc3ncnn3c2N[C@@H](C)C(F)(F)F)c(F)c1
[1]
  Potency: inconclusive: 0.0372 µM [cytotoxic, full curve]
[2]
  Potency: active: 0.0501 µM
[3]
  Potency: active: 0.112 µM

## Nc1nc(N)c2nc(-c3cccc(Cl)c3)c(N)nc2n1
[1]
  Potency: inconclusive: 2.35 µM [cytotoxic, full curve]
[2]
  Potency: active: 1.26 µM
[3]
  Potency: active: 1.12 µM

## CO[C@H]1C[C@@H]2CC[C@@H](C)[C@@](O)(O2)C(=O)C(=O)N2CCCC[C@H]2C(=O)O[C@H]([C@H](C)C[C@@H]2CC[C@@H](OCCO)[C@H](OC)C2)CC(=O)[C@H](C)/C=C(/C)[C@@H](O)[C@@H](OC)C(=O)[C@H](C)C[C@H](C)/C=C\C=CC=C1C
[1]
  Potency: inconclusive: 10.5 µM [cytotoxic, partial curve]
[2]
  Potency: inconclusive: 31.6 µM [cytotoxic, single point]
[3]
  Potency: inconclusive: 35.5 µM [cytotoxic, partial curve, poor fit]

## CC(=O)N/N=C/c1ccc([N+](=O)[O-])o1
[1]
  Potency: active: 18.8 µM
[2]
  activity (max response): inactive: 2.1%
[3]
  Potency: inconclusive: 29.1 µM [cytotoxic, single point]

## Cc1c(C(=O)Nc2ccc(Oc3ccnc4[nH]cc(-c5ccccc5)c34)c(F)c2)c(=O)n(-c2ccc(F)cc2)n1C
[1]
  Potency: inconclusive: 0.0184 µM [cytotoxic, full curve]
[2]
  Potency: inconclusive: 11.2 µM [cytotoxic, partial curve]
[3]
  Potency: inconclusive: 10 µM [cytotoxic, full curve, poor fit]

## CN(CCO)C1CCN(c2ccc(Nc3ncc4c5ccnc(F)c5n(C5CCCC5)c4n3)nc2)CC1
[1]
  Potency: active: 0.0355 µM
[2]
  Potency: inconclusive: 4.51 µM [cytotoxic, partial curve]
[3]
  Potency: inconclusive: 2.02 µM [cytotoxic, full curve]

## c1ccc2c(-c3cnn4cc(-c5ccc(OCCN6CCOCC6)cc5)cnc34)ccnc2c1
[1]
  Potency: active: 1.02 µM
[2]
  Potency: inconclusive: 6.37 µM [cytotoxic, partial curve]
[3]
  Potency: inconclusive: 5.68 µM [cytotoxic, partial curve, poor fit]

## NC(=O)NS(=O)(=O)c1ccc(N)cc1
[1]
  Potency: inactive
[2]
  Potency: inconclusive: 18.4 µM [cytotoxic, single point]
[3]
  Potency: inactive

## CCN(CC)CCNC(=O)c1c(C)[nH]c(/C=C2/C(=O)Nc3ccc(-c4csc(-c5ccccc5)n4)cc32)c1C
[1]
  Potency: active: 0.468 µM
[2]
  Potency: inconclusive: 28.2 µM [cytotoxic, single point]
[3]
  Potency: active: 3.55 µM

## Cn1cc(-c2cnc3ccc4ccc(CS(=O)(=O)NCc5ccccn5)cc4c(=O)c3c2)cn1
[1]
  Potency: active: 14.6 µM
[2]
  Potency: inconclusive: 20 µM [cytotoxic, partial curve, poor fit]
[3]
  Potency: inconclusive: 10 µM [cytotoxic, partial curve]

## CC(C)(C)CC(C)(C)c1ccc(OCCOCC[N+](C)(C)Cc2ccccc2)cc1
[1]
  Potency: active: 2.37 µM and active: 1.16 µM
[2]
  Potency: active: 5.17 µM
[3]
  Potency: inconclusive: 18.4 µM [cytotoxic, single point]

## CC(=O)OCC(=O)[C@@]1(O)[C@H](OC(C)=O)C[C@H]2[C@@H]3CCC4=CC(=O)C=C[C@]4(C)[C@@]3(F)[C@@H](O)C[C@@]21C
[1]
  Potency: inactive
[2]
  Potency: inconclusive: 18.4 µM [cytotoxic, single point]
[3]
  Potency: inactive

## C#C[C@]1(O)CC[C@H]2[C@@H]3CCc4cc(O)ccc4[C@H]3CC[C@@]21C
[1]
  Potency: inactive and active: 14.8 µM
[2]
  Potency: inconclusive: 29.1 µM [cytotoxic, single point]
[3]
  Potency: inconclusive: 25.9 µM [cytotoxic, single point]

## c1cn2cc(-c3ccc4cn[nH]c4c3)nc(Nc3ccc(N4CCOCC4)cc3)c2n1
[1]
  Potency: active: 651 nM and inconclusive: 525 nM [cytotoxic, full curve]
[2]
  activity (max response): inactive: 2.68%
[3]
  Potency: inactive

## C=C(CC)C(=O)c1ccc(OCC(=O)O)c(Cl)c1Cl
[1]
  Potency: active: 13.3 µM
[2]
  Potency: inconclusive: 18.4 µM [cytotoxic, single point]
[3]
  Potency: active: 9.2 µM

## C#C[C@]1(OC(C)=O)CC[C@H]2[C@@H]3CCC4=C[C@@H](OC(C)=O)CC[C@@H]4[C@H]3CC[C@@]21C
[1]
  Potency: inconclusive: 11.9 µM [cytotoxic, partial curve] and inconclusive: 10.3 µM [cytotoxic, partial curve]
[2]
  Potency: inconclusive: 18.4 µM [cytotoxic, single point]
[3]
  Potency: active: 20.6 µM

## CCCOc1ccc(CCc2nc3cc(-c4c(C)noc4C)ccc3n2CCN2CCOCC2)cc1
[1]
  Potency: inconclusive: 5.9 µM [cytotoxic, full curve]
[2]
  Potency: inconclusive: 25.1 µM [cytotoxic, single point]
[3]
  Potency: active: 22.4 µM

## CCCNC(=O)[C@H]1O[C@@H]1C(=O)N[C@H](C(=O)N1CCC[C@H]1C(=O)OC)C(C)CC (stereo not given in full)
[1]
  Potency: active: 1.66 µM
[2]
  Potency: active: 10 µM
[3]
  Potency: inconclusive: 2.51 µM [cytotoxic, full curve]

## CCCC(=O)O[C@]1(C(=O)CCl)[C@@H](C)C[C@H]2[C@@H]3CCC4=CC(=O)C=C[C@]4(C)[C@@]3(F)C(=O)C[C@@]21C
[1]
  Potency: active: 11.9 µM
[2]
  Potency: inconclusive: 18.4 µM [cytotoxic, partial curve, poor fit]
[3]
  Potency: inconclusive: 14.6 µM [cytotoxic, partial curve, poor fit]
